According to the RNAGym collection of RNA variant scans (doi:10.1101/gad.245936.114):
Variants at the background level are over-represented here.

B1: tRNA (parent)
chain: CUCUCGGUAGCCAAGUUGGUUUAAGGCGCAAGACUUUAAUUUAUCACUACGAAAUCUUGAGAUCGGGCGUUCGACUCGCCCCCGGGAGAUUUUUUCCUCGAGCAA

Variants of: B1
Assay: nonsense suppression (GFP-seq) (ratio to wild type); higher = more function; SUP4oc tRNA, yeast GFP reporter sort-seq
In short: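 Yeast carrying genome-integrated SUP4oc tRNA variants from a library with ~3% random mutations were grown in raffinose/galactose medium with 80 mg/L adenine. Each strain also carried a galactose-driven GFP ochre reporter and RFP. Cells were sorted into GFP/RFP bins, and each bin was Illumina-sequenced (phred ≥30). Nonsense suppression (GFPSEQ) is the bin median GFP/RFP, weighted by each variant's estimated cell share per bin, relative to wild-type SUP4oc; variants needed ≥100 reads and ≥30 cells.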

Going from CUCUCGGUAGCCAAGAUGGUUCAAGGCGCAAGACUUUAAUUUAUCACUACGAAAUCUUGAGAUCGGGCGUUCGACUCGCCCCCGGGAGAUUUUUUCCUCGAGCAA [U16A U22C] to CUCUCGGUAGCCAAGAUGGUUGAAGGCGCAAGACUUUAAUUUAUCACUACGAAAUCUUGAGAUCGGGCGUUCGACUCGUCCCCGGGAGAUUUUUUCCUCGAGCAA [U16A U22G C79U], the nonsense suppression falls from 1.08 to 0.208.

CUCUCGGUAGCCAAGAUGGUUUAAGGCGCAAGACAUUAAUUUAUCACUACGAAAUCUUGAGAUCGGGCGUUCGACUCGCCCCCGGGAGAUUUUUUCCUCGAGCAA [U16A U35A] and CUCUCGGUAGCCAAGAUGGUUUAAGGCGCAAGACAUUAAUUUAUCACUACGAAAUCUUGAGAUCGGGCGUUCGACUCGCCCCCGAGAGAUUUUUUCCUCGAGCAA [U16A U35A G85A] cannot be ordered by nonsense suppression: ≤ 0.026 for the first, ≤ 0.026 for the second.

CUCUCGGUAGCCAAGAUGGUUUAAGGCGCAAGACUUUAAUUUAUCACUACGAAAACUUGAGAUCGGGCGUUCGACUCGCCCCCGGGAGAUUUUUUCCUCGAGCAA [U16A U55A] and CUCUCGGUAGCCAAGAUGGUUUAAGGCGCAAGACUUUAAUUUAUCACUACGAAAGCUUGAGAUCGGGCCUUCGACUCGCCCCCGGGAGAUUUUUUCCUCGAGCAA [U16A U55G G69C] cannot be ordered by nonsense suppression: ≤ 0.026 for the first, ≤ 0.026 for the second.

CUCUCGGUAGCCAAGAUGGUUUAAGGCGCAAGACUUUAAUUUAUCACUACGAAAGCAUGAGAUCGGGCGUUCGACUCGCCCCCGGGAGAUUUUUUCCUCGAGCAA [U16A U55G U57A] and CUCUCGGUAGCCAAGAUGGUUUAAGGCGCAAGACUUUAAUUUAUCACUACGAAAUCUUGAGAACGGUCGUUCGAUUCGCCCCCGUGAGAUUUUUUCCUCGAGCAA [U16A U63A G67U C75U G85U] cannot be ordered by nonsense suppression: ≤ 0.026 for the first, ≤ 0.026 for the second.

CUCUCGGUAGCCAAGAUGGUUUAAGGCGCAAGACUUUAAUUUAUCACUACGAAAUCUUGAGAUCGGGCGGUCGACUCGCCCCCGGGAGAUUUUUUCCUCGAGCAA [U16A U70G] and CUCUCGGUAGCCAAGAUGGUUUAAGGCGCAAGACUUUAAUUUAUCACUACGAAAUCUUGAGAUCGGGCGUACGACUCGCCCCCGGGAGAUUUUUUCCUCGAGCAA [U16A U71A] cannot be ordered by nonsense suppression: ≤ 0.026 for the first, ≤ 0.026 for the second.

Going from CUCUCGGUAGCCAAGAUGGUUUAAGGCGCAAGACUUUAAUUUAUCACUACGAAAUCUUGAGAUCGGGCGUUCGACCCGCCCCCGGGAGAUUUUUUCCUCGAGCAA [U16A U76C] to CUCUCGGUAGCCAAGCUGGUUUAAGGCGCAAGACUUUAAUUUAUCACUACGAAAUCUUGAGAUCGGGCGUUCGACUCGCCCCCGGGAGAUUUUUUCCUCGAGCAA [U16C], the nonsense suppression falls from 1.19 to 0.862.

CUCUCGGUAGCCAAGCUGGUUUGAGGCUCAAGACUUUAAUUUAUCACUACGAAAUCUUGAGAUCGGGCGUUCGACUCGCCCCCGUGAGAUUUUUUCCUCGAGCAA [U16C A23G G28U G85U] and CUCUCGGUAGCCAAGCUGGUUUUAGGCGCAAGACUUUAAUUUAUCACUACGAAAUCUUGAGAUCGGGCGUUCGACUCGUCCCCGGGAGAUUUUUUCCUCGAGCAA [U16C A23U C79U] cannot be ordered by nonsense suppression: ≤ 0.026 for the first, ≤ 0.026 for the second.

CUCUCGGUAGCCAAGCUGGUUUACGGCGCACUACUUUAAUUUAUCACUACGAAAUCUUGAGAUCGGACGUUCGACUCGGCCCCGGGAGAUUUUUUCCUCGAGCAA [U16C A24C A31C G32U G67A C79G] and CUCUCGGUAGCCAAGCUGGUUUAGGGCGCAAGACUUUAAUUUAUCACUACGAAAUCUUGAUAUCCGGCGUUCGACUCGCCCCCGGGAGAUUUUUUCCUCGAGCAA [U16C A24G G61U G65C] cannot be ordered by nonsense suppression: ≤ 0.026 for the first, ≤ 0.026 for the second.

Compared with CUCUCGGUAGCCAAGCUGGUUUAAGGCGCGAGACUUUAAUUUAUCACUACGAAAUCUUGAGAUCGGGCGUUCGACUCGCCCCCGGGAGAUUUUUUCCUCGAGCAA [U16C A30G], CUCUCGGUAGCCAAGCUGGUUUAAGGCGCGAGACGUUAAUUUAUCACUACGAAAUCUUGAGAUCGGGCGAUCGACUCGCCCCCGGGAGAUUUUUUCCUCGAGCAA [U16C A30G U35G U70A] is lower in nonsense suppression: 1.17 for the first, ≤ 0.026 for the second.

CUCUCGGUAGCCAAGCUGGUUUAAGGCGCGAGACUUUAAUUUAUCACUACGAAAGCUUGAGAUCGGGCGUUCGACUCGCCCCCGGGAGAUUUUUUCCUCGAGCAA [U16C A30G U55G] and CUCUCGGUAGCCAAGCUGGUUUAAGGCGCGAGACUUUAAUUUAUCACUACGAAAUCUUGAGAACGGGCGUUCGACUCGCCCCCGACUGAUUUUUUCCUCGAGCAA [U16C A30G U63A G85A G86C A87U] cannot be ordered by nonsense suppression: ≤ 0.026 for the first, ≤ 0.026 for the second.

CUCUCGGUAGCCAAGCUGGUUUAAGGCGCACGACUUUAAUUUAUCACUACGAAAUCUUGAGAUCGGGCGUUCGACUGGCCCCCGGGAGAUUUUUUCCUCGAGCAA [U16C A31C C77G] and CUCUCGGUAGCCAAGCUGGUUUAAGGCGCACGACUUUAAUUUAUCACUACGAAAUCUUGAGAUCGGACGUUCGACUCGCCCCCGGGAGAUUUUUUCCUCGAGCAA [U16C A31C G67A] cannot be ordered by nonsense suppression: ≤ 0.026 for the first, ≤ 0.026 for the second.

Compared with CUCUCGGUAGCCAAGCUGGUUUAAGGCGCAGGACUUUAAUUUAUCACUACGAAAUCUUGAGAUCGGGCGUUCGACUCGCCCCCGGGAGAUUUUUUCCUCGAGCAA [U16C A31G], CUCUCGGUAGCCAAGCUGGUUUAAGGCGCAGGAGUUUAAUUUAUCACUACGAAAUCUUGAGAUCGGGCGUUCGACUCGACCCCGGGAGAUUUUUUCCUCGAGCAA [U16C A31G C34G C79A] is lower in nonsense suppression: 1.07 for the first, ≤ 0.026 for the second.

Compared with CUCUCGGUAGCCAAGCUGGUUUAAGGCGCAAGGCUUUAAUUUAUCACUACGAAAUCUUGAGAUCGGGCGUUCGACUCGCCCCCGGGAGAUUUUUUCCUCGAGCAA [U16C A33G], CUCUCGGUAGCCAAGCUGGUUUAAGGCGCAAGACUUUAAUUUAUCACUACGAACUCUUGAGAUCGGGCGUUCGACUCGCCCCCGGGAGAUUUUUUCCUCGAGCAA [U16C A54C] is higher in nonsense suppression: ≤ 0.026 for the first, 1.22 for the second.

For CUCUCGGUAGCCAAGCUGGUUUAAGGCGCAAGACUUUAAUUUAUCACUACGAAAUCUUGAGCUCGGGCGUUUGACUCGCCCCCGGGAGAUUUUUUCCUCGAGCAA [U16C A62C C72U], the nonsense suppression was ≤ 0.026.
